{"source": "the BET-seq Pho4 binding data (Le et al. 2018)", "note": "The other results are listed elsewhere or left out. These are noisy estimates, calculated here from bound and input reads."}
{"target": "T1, Pho4 (S. cerevisiae) (UniProt P07270)", "T1 sequence": "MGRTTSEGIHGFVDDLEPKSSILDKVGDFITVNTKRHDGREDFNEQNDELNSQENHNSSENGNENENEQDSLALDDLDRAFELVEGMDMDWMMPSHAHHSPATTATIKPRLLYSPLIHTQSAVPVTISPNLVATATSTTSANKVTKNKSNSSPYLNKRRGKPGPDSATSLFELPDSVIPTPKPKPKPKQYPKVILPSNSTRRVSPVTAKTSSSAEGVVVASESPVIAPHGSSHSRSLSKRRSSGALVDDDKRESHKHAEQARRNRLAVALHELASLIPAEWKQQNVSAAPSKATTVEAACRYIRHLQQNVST", "assay": "relative binding free energy (BET-seq); higher = weaker binding", "conditions": "reference: library average", "units": {"relative binding free energy": "kcal/mol"}}
{"sequence": "GCTGCCACGTGTAGGG", "relative binding free energy": 0.01}
{"sequence": "ATTAGCACGTGGTGCA", "relative binding free energy": -0.15}
{"sequence": "TGAGCCACGTGGGTGA", "relative binding free energy": -0.17}
{"sequence": "GTTTTCACGTGTGCTC", "relative binding free energy": 0.39}
{"sequence": "AATGTCACGTGGTCTG", "relative binding free energy": -0.02}
{"sequence": "CGATGCACGTGGAGTG", "relative binding free energy": 0.04}
{"sequence": "TTTTGCACGTGTGCGC", "relative binding free energy": 0.1}
{"sequence": "TTGGACACGTGTACAG", "relative binding free energy": 0.12}
{"sequence": "TCGCCCACGTGGGGGT", "relative binding free energy": -0.17}
{"sequence": "ACATGCACGTGGGTGT", "relative binding free energy": -0.34}
{"sequence": "ATCGCCACGTGGTGTT", "relative binding free energy": -0.04}
{"sequence": "GCTTGCACGTGTATTA", "relative binding free energy": 0.13}
{"sequence": "TGTTACACGTGATAAG", "relative binding free energy": 0.38}
{"sequence": "GGTATCACGTGGATAG", "relative binding free energy": 0.28}
{"sequence": "ATGGACACGTGTGATT", "relative binding free energy": 0.17}
{"sequence": "GTATGCACGTGTTAAG", "relative binding free energy": 0.05}
{"sequence": "GGGAGCACGTGGTACG", "relative binding free energy": -0.11}
{"sequence": "TTCACCACGTGTGGTA", "relative binding free energy": 0.2}
{"sequence": "TATTGCACGTGTTAGT", "relative binding free energy": -0.01}
{"sequence": "TGTAGCACGTGGATTC", "relative binding free energy": -0.1}
{"sequence": "GTTAGCACGTGGAGGC", "relative binding free energy": 0.05}
{"sequence": "GGTTTCACGTGGGGTC", "relative binding free energy": 0.21}
{"sequence": "CGTTACACGTGGGTTT", "relative binding free energy": 0.04}
{"sequence": "GTGTTCACGTGGGATG", "relative binding free energy": 0.29}
{"sequence": "ATTTACACGTGTGCGA", "relative binding free energy": 0.13}
{"sequence": "TTGTGCACGTGTGTAG", "relative binding free energy": -0.05}
{"sequence": "GGAGGCACGTGGGTAA", "relative binding free energy": -0.21}
{"sequence": "AGCAGCACGTGATAGG", "relative binding free energy": 0.1}
{"sequence": "GGGAACACGTGGGTTA", "relative binding free energy": -0.09}
{"sequence": "CGTTGCACGTGAGGGA", "relative binding free energy": 0.22}
{"sequence": "AGCTTCACGTGTTGTA", "relative binding free energy": 0.13}
{"sequence": "TATCTCACGTGTAGAT", "relative binding free energy": 0.34}
{"sequence": "GAAGGCACGTGTTTTT", "relative binding free energy": -0.09}
{"sequence": "TGAGGCACGTGGGCTC", "relative binding free energy": -0.16}
{"sequence": "GGAGGCACGTGGCTGG", "relative binding free energy": -0.09}
{"sequence": "TTAGGCACGTGTGGCC", "relative binding free energy": -0.05}
{"sequence": "ATCTACACGTGGCGGG", "relative binding free energy": 0.19}
{"sequence": "TTCTGCACGTGGATTT", "relative binding free energy": -0.03}
{"sequence": "GTCATCACGTGCGTGT", "relative binding free energy": 0}
{"sequence": "TGTGCCACGTGGTTTG", "relative binding free energy": -0.08}
{"sequence": "AGTGTCACGTGAACGT", "relative binding free energy": 0.03}
{"sequence": "GCGGACACGTGCGTGG", "relative binding free energy": -0.09}
{"sequence": "ATGTACACGTGTAAAG", "relative binding free energy": 0.19}
{"sequence": "TAGTGCACGTGGCATT", "relative binding free energy": -0.05}
{"sequence": "CCGAGCACGTGTGGGG", "relative binding free energy": -0.07}
{"sequence": "TTCAGCACGTGGGGAG", "relative binding free energy": -0.15}
{"sequence": "TAATTCACGTGAAGTG", "relative binding free energy": 0.32}
{"sequence": "AGAATCACGTGTATGG", "relative binding free energy": -0.01}
{"sequence": "AACTTCACGTGGTAGT", "relative binding free energy": 0.13}
{"sequence": "GGTGTCACGTGCTGAG", "relative binding free energy": 0.08}
{"sequence": "GCTTTCACGTGGGTGA", "relative binding free energy": 0.22}
{"sequence": "AGTTTCACGTGTTGAT", "relative binding free energy": 0.23}
{"sequence": "GTACTCACGTGGGCGG", "relative binding free energy": 0.15}
{"sequence": "ATGAGCACGTGGAGTA", "relative binding free energy": -0.25}
{"sequence": "TATGACACGTGTCATT", "relative binding free energy": 0.12}
{"sequence": "AATCTCACGTGTGTTC", "relative binding free energy": 0.42}
{"sequence": "TTGTGCACGTGACGGG", "relative binding free energy": 0.12}
{"sequence": "GTTCGCACGTGATTTA", "relative binding free energy": 0.07}
{"sequence": "AGTAGCACGTGGTATA", "relative binding free energy": -0.17}
{"sequence": "TGGGACACGTGCGTCT", "relative binding free energy": -0.03}
{"sequence": "TGTATCACGTGAGGCG", "relative binding free energy": 0.38}
{"sequence": "GTATACACGTGTGGAT", "relative binding free energy": 0.01}
{"sequence": "GGGAGCACGTGGGTGG", "relative binding free energy": -0.12}
{"sequence": "GTTATCACGTGATGAT", "relative binding free energy": 0.22}
{"sequence": "GGCTACACGTGGTAGA", "relative binding free energy": 0.21}
{"sequence": "TTTTACACGTGAGCTG", "relative binding free energy": 0.37}
{"sequence": "TGTGGCACGTGGGGTA", "relative binding free energy": -0.23}
{"sequence": "GGGATCACGTGAGTTA", "relative binding free energy": 0.1}
{"sequence": "TGGGTCACGTGTATAC", "relative binding free energy": 0.08}
{"sequence": "CGTAGCACGTGGGTTA", "relative binding free energy": -0.2}
{"sequence": "AAAAGCACGTGAGTGT", "relative binding free energy": -0.02}
{"sequence": "TGGTGCACGTGAATCG", "relative binding free energy": 0.27}
{"sequence": "TCTAGCACGTGTAGGA", "relative binding free energy": -0.04}
{"sequence": "GGGATCACGTGTGTAG", "relative binding free energy": 0.31}
{"sequence": "AATGCCACGTGAGTGT", "relative binding free energy": 0.2}
{"sequence": "TGTGACACGTGGTTTC", "relative binding free energy": 0.11}
{"sequence": "TTGCACACGTGGGTTT", "relative binding free energy": -0.08}
{"sequence": "AGGTGCACGTGAGAGG", "relative binding free energy": 0.19}
{"sequence": "TGTTACACGTGATAGC", "relative binding free energy": 0.14}
{"sequence": "CTGAGCACGTGTGTTG", "relative binding free energy": -0.04}
{"sequence": "TTGGTCACGTGTACAT", "relative binding free energy": 0.16}
{"sequence": "AGTCGCACGTGCTGGT", "relative binding free energy": -0.15}
{"sequence": "GAGGCCACGTGGTTTT", "relative binding free energy": 0.01}
{"sequence": "AGAAACACGTGGCGGG", "relative binding free energy": -0.09}
{"sequence": "GTTTGCACGTGTCGAT", "relative binding free energy": 0.17}
{"sequence": "CGAGTCACGTGTTGGT", "relative binding free energy": 0.04}
{"sequence": "TGCTTCACGTGATTGA", "relative binding free energy": 0.3}
{"sequence": "GTGTGCACGTGGGTGC", "relative binding free energy": -0.13}
{"sequence": "GTGAGCACGTGATTAG", "relative binding free energy": 0.06}
{"sequence": "AACGTCACGTGAAGGG", "relative binding free energy": 0.27}
{"sequence": "TCATGCACGTGGTATA", "relative binding free energy": -0.1}
{"sequence": "AATGGCACGTGTATTT", "relative binding free energy": -0.02}
{"sequence": "GGCGGCACGTGAATTT", "relative binding free energy": 0.31}
{"sequence": "TCTGTCACGTGTTGCA", "relative binding free energy": 0.03}
{"sequence": "GGAAGCACGTGGTGAT", "relative binding free energy": -0.22}
{"sequence": "AGTTCCACGTGGTGAT", "relative binding free energy": 0.05}
{"sequence": "TTTGGCACGTGACTCG", "relative binding free energy": 0.05}
{"sequence": "CATCACACGTGTTGTG", "relative binding free energy": 0.24}
{"sequence": "TGTCACACGTGGGGGT", "relative binding free energy": -0.02}
{"sequence": "TGTTTCACGTGAGCCG", "relative binding free energy": 0.48}
{"sequence": "CATGGCACGTGTGATT", "relative binding free energy": -0.06}
{"sequence": "TGGTGCACGTGTTAGA", "relative binding free energy": -0.05}
{"sequence": "TGGTGCACGTGTGTCC", "relative binding free energy": -0.03}
{"sequence": "AGGTCCACGTGGAGTA", "relative binding free energy": -0.04}
{"sequence": "GGTATCACGTGAAGAG", "relative binding free energy": 0.29}
{"sequence": "TATAGCACGTGCGGTA", "relative binding free energy": -0.14}
{"sequence": "GTAAGCACGTGGGGAC", "relative binding free energy": -0.02}
{"sequence": "TTTACCACGTGTTGTC", "relative binding free energy": 0.09}
{"sequence": "GTTCTCACGTGGATGT", "relative binding free energy": 0.29}
{"sequence": "GTTCACACGTGTTTGA", "relative binding free energy": 0.06}
{"sequence": "GGTGTCACGTGGGAGT", "relative binding free energy": 0.06}
{"sequence": "ATGACCACGTGGTTGT", "relative binding free energy": -0.14}
{"sequence": "GATGACACGTGTGTCT", "relative binding free energy": 0.23}
{"sequence": "GAGTTCACGTGTATTG", "relative binding free energy": 0.08}
{"sequence": "TGGTTCACGTGGACTC", "relative binding free energy": 0.33}
